# Test results: the supplement of paper PMC8728848
# The list shows a part of the results.
# B1: AAA (Anguilla anguilla), Q7SIC1 (protein)
# chain: VIPEGYTQENVAVRGKATQSAQLRGEHAANSEASNAIDGNRDSNFYHGSCTHSSGQANPWWRVDLLQVYTITSVTITNRGDCCGERISGAEINIGQHLASNGVNNPECSVIGSMATGETKTFHCPAPMIGRYVVTYLPTSESLHLCEVEVNVDKPAAA
# Tests used:
# Assay in all cases: glycan array binding signal (z-score within array); higher = stronger binding
# Details in all cases: glycan notation: IUPAC condensed, linker removed
# [1] = target: Fuc(a1-2)Gal(b1-4)GlcNAc(b1-3)Gal(b1-4)GlcNAc
# Procedure, shortened: (§1)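 Glycan array data came from 3228 arrays in the Consortium for Functional Glycomics database, and only arrays with an available protein sequence were kept. Glycan names were put into IUPAC-condensed notation, and columns mapping to the same glycan were averaged. The binding signal is a within-array Z-score, averaged across arrays of one protein sequence run at different concentrations or buffers and across linkers. A negative Z-score can be read as non-binding.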
# [2] = target: Fuc(a1-2)Gal(b1-4)GlcNAc(b1-3)Gal(b1-4)GlcNAc(b1-2)Man(a1-3)[Fuc(a1-2)Gal(b1-4)GlcNAc(b1-3)Gal(b1-4)GlcNAc(b1-2)Man(a1-6)]Man(b1-4)GlcNAc(b1-4)GlcNAc
# Procedure, shortened: as §1
# [3] = target: Fuc(a1-2)Gal(b1-4)GlcNAc(b1-3)Gal(b1-4)GlcNAc(b1-3)Gal(b1-4)GlcNAc
# Procedure, shortened: as §1
# [4] = target: Fuc(a1-2)Gal(b1-4)GlcNAc(b1-3)GalNAc
# Procedure, shortened: as §1
# [5] = target: Fuc(a1-2)Gal(b1-4)GlcNAc(b1-3)[Fuc(a1-2)Gal(b1-4)GlcNAc(b1-6)]GalNAc
# Procedure, shortened: as §1
# [6] = target: Fuc(a1-2)Gal(b1-4)GlcNAc(b1-3)[Fuc(a1-3)[Gal(b1-4)]GlcNAc(b1-6)]Gal(b1-4)Glc
# Procedure, shortened: as §1
# [7] = target: Fuc(a1-2)Gal(b1-4)GlcNAc(b1-6)GalNAc
# Procedure, shortened: as §1
# [8] = target: Fuc(a1-2)Gal(b1-4)GlcNAc6S
# Procedure, shortened: as §1
# [9] = target: Fuc(a1-2)Gal(b1-4)[Fuc(a1-3)]GalNAc(b1-3)Gal(b1-4)[Fuc(a1-3)]GlcNAc
# Procedure, shortened: as §1
# [10] = target: Fuc(a1-2)Gal(b1-4)[Fuc(a1-3)]GalNAc(b1-3)Gal(b1-4)[Fuc(a1-3)]GlcNAc(b1-3)Gal(b1-4)[Fuc(a1-3)]GalNAc
# Procedure, shortened: as §1
# [11] = target: Fuc(a1-2)Gal(b1-4)[Fuc(a1-3)]GlcNAc
# Procedure, shortened: as §1
# [12] = target: Fuc(a1-2)Gal(b1-4)[Fuc(a1-3)]GlcNAc(b1-2)Man(a1-3)[Fuc(a1-2)Gal(b1-4)[Fuc(a1-3)]GlcNAc(b1-2)Man(a1-6)]Man(b1-4)GlcNAc(b1-4)[Fuc(a1-6)]GlcNAc
# Procedure, shortened: as §1
# [13] = target: Fuc(a1-2)Gal(b1-4)[Fuc(a1-3)]GlcNAc(b1-2)[Fuc(a1-2)Gal(b1-4)[Fuc(a1-3)]GlcNAc(b1-4)]Man(a1-3)[Fuc(a1-2)Gal(b1-4)[Fuc(a1-3)]GlcNAc(b1-2)Man(a1-6)]Man(b1-4)GlcNAc(b1-4)GlcNAc
# Procedure, shortened: as §1
# [14] = target: Fuc(a1-2)Gal(b1-4)[Fuc(a1-3)]GlcNAc(b1-3)Gal(b1-4)[Fuc(a1-3)]GlcNAc
# Procedure, shortened: as §1
# [15] = target: Fuc(a1-2)Gal(b1-4)[Fuc(a1-3)]GlcNAc(b1-3)Gal(b1-4)[Fuc(a1-3)]GlcNAc(b1-3)Gal(b1-4)[Fuc(a1-3)]GlcNAc
# Procedure, shortened: as §1
# [16] = target: Fuc(a1-2)Gal(b1-4)[Fuc(a1-3)]GlcNAc(b1-3)GalNAc
# Procedure, shortened: as §1
# [17] = target: Fuc(a1-2)Gal(b1-4)[Fuc(a1-3)]GlcNAc(b1-3)[Neu5Ac(a2-6)Gal(b1-4)GlcNAc(b1-6)]Gal(b1-4)Glc
# Procedure, shortened: as §1
# [18] = target: Fuc(a1-2)Gal3S(b1-4)GlcNAc
# Procedure, shortened: as §1
# [19] = target: Fuc(a1-2)Gal6S(b1-3)GlcNAc
# Procedure, shortened: as §1
# [20] = target: Fuc(a1-2)Gal6S(b1-3)GlcNAc6S
# Procedure, shortened: as §1
# Fuc(a1-2)Gal6S(b1-4)Glc = target: Fuc(a1-2)Gal6S(b1-4)Glc
# Procedure, shortened: as §1
# [21] = target: Fuc(a1-2)Gal6S(b1-4)Glc6S
# Procedure, shortened: as §1
# [22] = target: Fuc(a1-2)Gal6S(b1-4)GlcNAc
# Procedure, shortened: as §1
# Fuc(a1-2)GlcNAc = target: Fuc(a1-2)GlcNAc
# Procedure, shortened: as §1
# Fuc(a1-2)[Gal(a1-3)]Gal = target: Fuc(a1-2)[Gal(a1-3)]Gal
# Procedure, shortened: as §1
# [23] = target: Fuc(a1-2)[Gal(a1-3)]Gal(b1-3)GalNAc
# Procedure, shortened: as §1
# [24] = target: Fuc(a1-2)[Gal(a1-3)]Gal(b1-3)GalNAc(b1-3)Gal(a1-4)Gal(b1-4)Glc
# Procedure, shortened: as §1
# [25] = target: Fuc(a1-2)[Gal(a1-3)]Gal(b1-3)GlcNAc
# Procedure, shortened: as §1
# [26] = target: Fuc(a1-2)[Gal(a1-3)]Gal(b1-3)GlcNAc(b1-2)Man(a1-3)[Fuc(a1-2)[Gal(a1-3)]Gal(b1-3)GlcNAc(b1-2)Man(a1-6)]Man(b1-4)GlcNAc(b1-4)GlcNAc
# Procedure, shortened: as §1
# [27] = target: Fuc(a1-2)[Gal(a1-3)]Gal(b1-3)GlcNAc(b1-2)Man(a1-3)[Fuc(a1-2)[Gal(a1-3)]Gal(b1-3)GlcNAc(b1-2)Man(a1-6)]Man(b1-4)GlcNAc(b1-4)[Fuc(a1-6)]GlcNAc
# Procedure, shortened: as §1
binder,measurement,setting,value
B1,glycan array binding signal (z-score),[1],-0.217
same,glycan array binding signal (z-score),[2],0.005
same,glycan array binding signal (z-score),[3],-0.279
same,glycan array binding signal (z-score),[4],0.041
same,glycan array binding signal (z-score),[5],-0.001
same,glycan array binding signal (z-score),[6],-0.128
same,glycan array binding signal (z-score),[7],0.002
same,glycan array binding signal (z-score),[8],-0.167
same,glycan array binding signal (z-score),[9],-0.583
same,glycan array binding signal (z-score),[10],-0.587
same,glycan array binding signal (z-score),[11],-0.134
same,glycan array binding signal (z-score),[12],0.025
same,glycan array binding signal (z-score),[13],0.956
same,glycan array binding signal (z-score),[14],-0.171
same,glycan array binding signal (z-score),[15],-0.183
same,glycan array binding signal (z-score),[16],0.11
same,glycan array binding signal (z-score),[17],-0.2
same,glycan array binding signal (z-score),[18],-0.241
same,glycan array binding signal (z-score),[19],-0.286
same,glycan array binding signal (z-score),[20],-0.144
same,glycan array binding signal (z-score),Fuc(a1-2)Gal6S(b1-4)Glc,0.05
same,glycan array binding signal (z-score),[21],0.211
same,glycan array binding signal (z-score),[22],0.546
same,glycan array binding signal (z-score),Fuc(a1-2)GlcNAc,8.41
same,glycan array binding signal (z-score),Fuc(a1-2)[Gal(a1-3)]Gal,-0.072
same,glycan array binding signal (z-score),[23],-0.142
same,glycan array binding signal (z-score),[24],-0.247
same,glycan array binding signal (z-score),[25],0.046
same,glycan array binding signal (z-score),[26],-0.283
same,glycan array binding signal (z-score),[27],-0.167
